# In PubChem BioAssay AID624417 (National Center for Advancing Translational Sciences (NCATS), 2012):
# Several values for one entry are separate records, joined by “and”; a condition that tells them apart may be missing. Identical values can stand only once. In all, about 410,000 compounds went through this assay and about 6,400 (1.6%) were called active. The inconclusive results got no clear call from the source; some entries with a clear call stand among them for comparison. Calls follow the shape of the dose curve; as a rule, active = well fitted inhibition curve with a large enough effect; inconclusive = small, poorly fitted or top-dose-only effect; inactive = no such curve, though single readings can be large or run the other way. A potency beside an inconclusive call is a rough fit, not a confirmed value.
# Biological target: Glucagon-like peptide 1 receptor (Homo sapiens) (UniProt P43220)
# UniProt P43220, sequence (P43220 whole entry, looked up): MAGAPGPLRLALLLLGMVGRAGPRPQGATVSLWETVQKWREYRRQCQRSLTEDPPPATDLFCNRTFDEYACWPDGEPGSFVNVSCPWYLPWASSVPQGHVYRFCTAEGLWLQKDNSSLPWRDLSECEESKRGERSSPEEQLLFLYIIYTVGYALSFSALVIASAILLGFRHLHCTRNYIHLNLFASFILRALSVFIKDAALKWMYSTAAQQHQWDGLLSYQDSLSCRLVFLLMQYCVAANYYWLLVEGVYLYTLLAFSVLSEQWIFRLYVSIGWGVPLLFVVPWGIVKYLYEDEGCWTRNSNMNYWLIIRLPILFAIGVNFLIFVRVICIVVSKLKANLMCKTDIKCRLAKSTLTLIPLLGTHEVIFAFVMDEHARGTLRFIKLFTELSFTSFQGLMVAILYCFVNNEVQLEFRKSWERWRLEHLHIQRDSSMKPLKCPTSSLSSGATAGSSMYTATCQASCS
# Assay: qHTS of GLP-1 Receptor Inverse Agonists (Inhibition Mode); also: nearly all actives have a fitted effect of over 55% in size
# Conditions: HEK293 GLP-1R CRE-luciferase, luminescence, 24 h, GLP-1R form is constitutively active; activity change, negative = inhibition: at 38.3 µM (top of the series) unless noted
# Procedure, shortened: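 HEK293 cells stably co-expressing constitutively active GLP-1R and a cAMP-responsive luciferase reporter were seeded in DMEM with 10% Nu serum, given compounds after 12 h, and incubated 24 h at 37 deg C. Luminescence was then read.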
# % is scaled to controls: 0 for no effect and ±100 for the full control effect; potency is read from the fitted curve at half-maximal effect; tags tell the direction and shape of the fitted curve.
Structure (SMILES),"activity change, negative = inhibition",Potency
O=S(=O)(Nc1ccc(Cc2ccncc2)cc1)c1ccc(Cl)c(Cl)c1,inactive: -0.56%,–
CN1CCN(c2ccc3c(c2)OC[C@H](Cc2ccccc2)NS3(=O)=O)CC1,–,"inconclusive: 2 µM [inhibitor, full curve]"
O=C(Nc1ccccc1N1CCCC1)c1cccc(Cl)c1Cl,–,"inconclusive: 8.91 µM [inhibitor, partial curve, poor fit]"
CN(C)c1ccc(NC(=O)Nc2ccc3c(c2)c(=O)n(C)n3-c2ccccc2)cc1,–,"inconclusive: 10 µM [inhibitor, partial curve]"
Cc1ccc(C2(c3noc(CN(C)Cc4cccnc4)n3)CCCC2)cc1,–,"inconclusive: 12.6 µM [inhibitor, single point]"
O=C(Nc1cccc(OC(F)(F)F)c1)C1Cc2c(-c3ccccc3Oc3ccccc3)ccnc2O1 (stereo unspecified),–,active: 12.6 µM
CN(C)CCn1c(=O)n(-c2cccc(Cl)c2)c(=O)c2c3c(sc21)CCCCC3,–,"inconclusive: 14.1 µM [inhibitor, partial curve, poor fit]"
COc1cc(/C=C2/N=C(C3CCCCC3)OC2=O)cc(OC)c1OC,inactive: 0.36%,–
CCCCC#Cc1cncc(C(=O)NN)c1,–,"inconclusive: 11.2 µM [inhibitor, partial curve, poor fit]"
Cc1cc(S(=O)(=O)Nc2ccc(C(=O)O)cc2)c(C)c(S(=O)(=O)c2ccc(Cl)cc2)c1,inactive: -15.4%,–
CNc1ncnc2c1ncn2[C@H]1CN(Cc2cccc3ccccc23)C[C@@H](CO)O1,inactive: 5.04%,–
CCOc1ccccc1N(C)C(=O)Cn1ncc2c([nH]c3ccc(C)cc32)c1=O,–,"inconclusive: 7.94 µM [inhibitor, partial curve, poor fit]"
CCN(C(=O)c1c(-c2ccccc2Cl)noc1C)C1CCCCC1,–,"inconclusive: 28.2 µM [inhibitor, single point]"
Cc1ccccc1C(=O)Nc1ccccc1-c1nnn(CC(=O)Nc2ccc3c(c2)OCCO3)n1,–,"inconclusive: 28.2 µM [inhibitor, single point]"
Cn1nc(C(C)(C)C)cc1NC(=O)C1(C)CCN1C(=O)Cc1ccc(-c2ccccc2)cc1 (stereo unspecified),–,"inconclusive: 10 µM [inhibitor, partial curve, poor fit]"
COCc1cc(C)nc(N2CCNCC2)c1C#N,inactive: 7.66%,–
Cc1ncc(CN2CCCC(C(=O)Nc3ccc(-c4cccc(F)c4)cc3)C2)s1 (stereo unspecified),–,"inconclusive: 25.1 µM [inhibitor, single point]"
O=C(NCCN1CCC(n2c(=O)[nH]c3ccccc32)CC1)c1ccc(F)c(F)c1,inactive: -23.8%,–
CCOc1cc2c(cc1C(C)(C)C)NC(=O)CS2,–,"inconclusive: 12.6 µM [inhibitor, partial curve, poor fit]"
COc1cc2c3nnc(-c4ccc(F)cc4)c-3cn(Cc3ccccc3)c2cc1OC,–,"inconclusive: 28.2 µM [inhibitor, single point]"
COc1ccc(C(=O)Nc2cccc(C(=O)NCc3ccco3)c2)cc1,–,"inconclusive: 2.24 µM [inhibitor, full curve, poor fit]"

Structure (SMILES),"activity change, negative = inhibition",Potency
COc1ccc(OC)c(CNC(=O)C2CCCCN2S(=O)(=O)c2ccc(F)cc2)c1 (stereo unspecified),–,"inconclusive: 25.1 µM [inhibitor, partial curve, poor fit]"
COc1ccc(C(=O)N2CCc3cc4c(cc3C2C)OCCCO4)cc1 (stereo unspecified),–,"inconclusive: 11.2 µM [inhibitor, single point]"
Cc1cccc(NC(=O)CC2CCC2)c1,inactive: 3.74%,–
Cc1cc(OCC(O)CN2CCN(c3cccc(Cl)c3)CC2)ccc1Cl (stereo unspecified),–,"inconclusive: 14.1 µM [inhibitor, partial curve, poor fit]"
CCCNCC1C(Oc2ccc(Cl)cc2)C(=O)N1c1ccccc1C (stereo unspecified),–,"inconclusive: 5.01 µM [inhibitor, partial curve]"
O=C(N/N=C/c1ccccc1O)c1cccc2ccccc12,–,"inconclusive: 2 µM [inhibitor, full curve, poor fit]"
CC(NC(=S)Nc1cccc(C(F)(F)F)c1)C(C)(C)C (stereo unspecified),–,"inconclusive: 11.2 µM [inhibitor, partial curve, poor fit]"
O=C1CN(C(=O)COC(=O)CCSc2ccccc2Cl)c2ccccc2N1,inactive: 0.603%,–
Cc1ccccc1NC(=O)c1ccc(-c2ccc(Cl)cc2Cl)o1,–,"inconclusive: 31.6 µM [inhibitor, single point]"
COc1ccc(-c2nc(Cn3c(SCc4cccc(C(F)(F)F)c4)nc4cccnc43)c(C)o2)cc1OC,–,"inconclusive: 11.2 µM [inhibitor, partial curve, poor fit]"
Cc1cc(N2C(=O)C(O)=C(C(=O)c3cc4ccccc4o3)C2c2ccc(Br)cc2)no1 (stereo unspecified),inactive: 7.77%,–
CC1CC(C)(C)NC(=S)N1CC(=O)NCc1ccc(F)cc1 (stereo unspecified),inactive: -17.8% [at 7.66 µM],–
CCOc1ccc2oc(C(=O)Nc3cc(C)ccn3)c(C)c2c1,–,"inconclusive: 11.2 µM [inhibitor, single point]"
COc1ccc(-c2ccc(CCC(=O)O)n2-c2ccccc2O)cc1,–,"inconclusive: 11.2 µM [inhibitor, partial curve, poor fit] and inconclusive: 3.55 µM [inhibitor, partial curve, poor fit]"
O=c1c2ccccc2nc(SCc2nc(-c3ccccc3)no2)n1-c1ccc(F)cc1,–,active: 3.55 µM
CC(C)C[C@H](NC(=O)c1nc[nH]c1C(=O)NCC(=O)OC(C)(C)C)C(=O)OC(C)(C)C,–,"inconclusive: 11.2 µM [inhibitor, single point]"
COc1ccc(S(=O)(=O)Nc2cc3c(C(=O)OC(C)C)c(C)oc3c3ccccc23)cc1,–,"inconclusive: 3.55 µM [inhibitor, partial curve, poor fit]"
Cc1ccc2[nH]c(C(=O)N3CCN(C(c4ccccc4)c4ccccc4)CC3)cc2c1,–,"inconclusive: 1.58 µM [inhibitor, partial curve, poor fit]"
COc1ccc(NC(=O)c2cc(C3CCCCN3C(=O)C3CC3)on2)c(C)c1 (stereo unspecified),inactive: -19.5%,–
CC(CCc1ccccc1)NC(=O)CSc1n[nH]c(-c2ccc(F)cc2)n1 (stereo unspecified),–,"inconclusive: 10 µM [inhibitor, partial curve, poor fit]"
